Data: a compilation of properties of binary mixtures (doi:10.1016/j.molliq.2022.119221)
Some of these densities may be calculated back from excess volumes.

Assay: xn = mol fraction of the nth substance listed
Conditions: 100 kPa

OCCO + CCCC[n+]1ccn(C)c1.O=S(=O)([N-]S(=O)(=O)C(F)(F)F)C(F)(F)F
mass density [kg/m3]
Conditions	293.15 K	298.15 K	303.15 K	308.15 K	313.15 K	318.15 K	323.15 K	328.15 K	333.15 K	338.15 K
x2 = 0.1	1237.3	1233.1	1229.3	1224.3	1219.6	1215.8	1212.1	1208.2	1204.6	1199.1
x2 = 0.2002	–	–	1300	1294.8	1289.8	1284.9	1279.8	1274.8	–	1264.2
x2 = 0.2997	1347.9	1343	1338.1	–	–	–	–	1313.1	1309.1	1304.9
x2 = 0.4015	–	1370.9	1365.9	1361.1	1356.3	1351.4	1347.4	–	1337.9	1333.3
x2 = 0.4993	1392.5	1387.6	1382.7	1377.8	1373.1	1368.3	1363.8	1360.1	1356.1	1351.6
x2 = 0.6007	1405.5	1400.5	1395.8	1391	1386.2	1381.5	1376.8	–	1368	1364.1
x2 = 0.7003	1412.9	1408	1403.1	–	1393.3	–	1383.8	1379.1	1374.5	1370
x2 = 0.7993	1421	1416	1411.1	1406.6	1401.8	1396.7	–	1387.3	–	–
x2 = 0.9	1431	1426.2	1421.4	1416.6	1411.4	1407	–	–	1392.6	1387.7
